Among all 310,000 compounds or so, about 2,200 (0.71%) showed an effect of 50% or more. The effect is printed as a negative number. This is one part of the list.

For the experiment, the target named is human ether-à-go-go-related gene (hERG) potassium channel (human, UniProt Q12809). Kind of experiment: primary screen, population patch clamp on CHO cells stably expressing hERG.
Sequence of human ether-à-go-go-related gene (hERG) potassium channel (Q12809 whole entry, looked up): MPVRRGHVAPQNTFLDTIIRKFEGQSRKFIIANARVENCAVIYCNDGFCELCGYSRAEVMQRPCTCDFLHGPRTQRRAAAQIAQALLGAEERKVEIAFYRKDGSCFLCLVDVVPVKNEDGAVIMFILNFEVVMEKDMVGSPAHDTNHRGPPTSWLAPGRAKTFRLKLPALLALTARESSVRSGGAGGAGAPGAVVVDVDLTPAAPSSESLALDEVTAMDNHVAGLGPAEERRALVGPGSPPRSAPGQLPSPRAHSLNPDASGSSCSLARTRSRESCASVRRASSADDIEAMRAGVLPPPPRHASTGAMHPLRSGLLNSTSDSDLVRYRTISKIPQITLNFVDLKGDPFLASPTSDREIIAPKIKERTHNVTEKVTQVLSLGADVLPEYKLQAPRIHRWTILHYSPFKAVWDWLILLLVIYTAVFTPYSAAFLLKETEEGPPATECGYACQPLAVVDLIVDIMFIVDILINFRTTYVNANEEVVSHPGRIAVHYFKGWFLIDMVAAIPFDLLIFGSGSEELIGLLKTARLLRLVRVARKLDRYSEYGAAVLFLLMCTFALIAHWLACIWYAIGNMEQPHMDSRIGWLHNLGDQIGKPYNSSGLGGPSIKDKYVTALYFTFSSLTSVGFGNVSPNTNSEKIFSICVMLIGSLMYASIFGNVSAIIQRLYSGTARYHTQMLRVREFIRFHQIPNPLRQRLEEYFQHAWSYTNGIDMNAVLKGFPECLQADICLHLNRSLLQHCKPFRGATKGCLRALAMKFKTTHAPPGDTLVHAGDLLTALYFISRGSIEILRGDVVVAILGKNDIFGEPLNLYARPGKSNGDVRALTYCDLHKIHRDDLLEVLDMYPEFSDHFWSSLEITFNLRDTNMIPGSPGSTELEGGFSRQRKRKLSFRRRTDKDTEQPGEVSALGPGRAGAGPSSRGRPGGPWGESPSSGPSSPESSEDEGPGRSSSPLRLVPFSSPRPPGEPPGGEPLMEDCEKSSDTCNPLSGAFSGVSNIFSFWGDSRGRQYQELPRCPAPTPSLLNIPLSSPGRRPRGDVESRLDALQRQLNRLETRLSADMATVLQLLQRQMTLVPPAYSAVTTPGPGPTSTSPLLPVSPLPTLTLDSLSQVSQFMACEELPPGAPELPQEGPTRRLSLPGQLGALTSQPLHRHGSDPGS
Regarding `CCn1c(SCC(=O)NC(C)C(C)C)nc2cc(S(=O)(=O)N3CCOCC3)ccc21` (stereo not shown), the “hERG current change (%, negative = inhibition) at 1uM” value is on record as 12.1%. Then `Cc1ccc(N2C(=O)c3ccccc3C2=O)cc1C`, with 8.14%; and `Br.CC(Cc1ccc(O)cc1)NCC(O)c1cc(O)cc(O)c1` (stereo not shown), with 17.7%.

On to `O=C1CCCN1CCCNS(=O)(=O)c1ccc(F)cc1F`, for which the “hERG current change (%, negative = inhibition) at 1uM” value is recorded as 14.5%. Consider `COc1ccc(-c2csc3ncnc(N4CCN(c5cccc(Cl)c5)CC4)c23)cc1`, for which the “hERG current change (%, negative = inhibition) at 1uM” value stood at 5.02%.

As for `O=C(COc1ccc2c3c(c(=O)oc2c1)CCC3)NC(Cc1ccc(Cl)cc1)C(=O)O` (stereo not shown), the “hERG current change (%, negative = inhibition) at 1uM” value is 6.32%. Then `O=C(NC(Nc1ncc(S(=O)(=O)c2ccc([N+](=O)[O-])cc2)s1)(C(F)(F)F)C(F)(F)F)c1ccc(Cl)cc1`, with 3.47%. `COc1ccc(/C=N/NC(=O)c2cccc([N+](=O)[O-])c2)cc1OS(=O)(=O)c1ccc(C)cc1`: the “hERG current change (%, negative = inhibition) at 1uM” value is -6.24%.

As to `Cc1ccsc1/C=C1\CCC(C2CCCC2)C1=O` (stereo not shown), the “hERG current change (%, negative = inhibition) at 1uM” value stood at 15.1%. Then `Cc1ccc(S(=O)(=O)N(C)CCCC(=O)N2CCCCC2)cc1`, with 6.01%; and `CCC(C)(C(=O)NC1CCCCC1)N(Cc1ccco1)C(=O)c1ccc2c(c1)OCO2` (stereo not shown), with 1.6%. With `Cc1ccc(C)c(N2CCN(C(=O)c3cc4c(C)nc5ccccc5c4o3)CC2)c1`, the “hERG current change (%, negative = inhibition) at 1uM” value was determined as 8.53%. As for `CCN1C(=O)[C@H]2[C@@H](c3ccc(-c4ccc(C(C)=O)cc4)cc3)N3CCCC[C@@]3(C(=O)OC)[C@H]2C1=O.O=C(O)C(F)(F)F`, the figure is 11.3%; as for `Cc1ccc(C)c(Nc2nc(N)c3ccccc3n2)c1.Cl`, -7.38%; as for `CC(C)CC(c1nnnn1CCc1ccccc1)N1CCC(C(N)=O)CC1` (stereo not shown), 4.62%. As for `COC(=O)CCCCCCCCC(O)CN(C)C` (stereo not shown), the figure is 16.2%. As for `Cc1ccccc1Cn1c(=N)n(CC(O)c2ccco2)c2ccccc21.Cl` (stereo not shown), the figure is -33.4%; as for `O=C(/C=C/c1ccc(Cl)c(Cl)c1)N1CCOCC1`, 7.16%; as for `N#CCCN(C(=O)c1cc2c(s1)-c1ccccc1S(=O)(=O)C2)c1ccccc1`, -1.14%. `Cc1ccc(S(=O)(=O)NCC(=O)N(CC2CCCO2)C(C(=O)NCC2CCCO2)C(C)C)cc1` (stereo not shown): the “hERG current change (%, negative = inhibition) at 1uM” value is on record as 11.8%.

`Cc1ccc[n+](CC(=O)Nc2cccc(Cl)c2)c1.[Cl-]`: the “hERG current change (%, negative = inhibition) at 1uM” value is on record as 15.8%. As for `CC(OC(=O)CCc1ccccc1)C(=O)Nc1ccc(Cl)cn1` (stereo not shown), the figure is 1.27%; as for `CCC(Cc1ccccc1)NC(=O)C1CCN(S(=O)(=O)c2ccc3c(c2)CC(C)N3C(C)=O)CC1` (stereo not shown), 16.9%. As for `CN(C)CCCN1CC(=O)N2[C@@H](Cc3c([nH]c4ccccc34)C2(C)C)C1=O`, the “hERG current change (%, negative = inhibition) at 1uM” value was found to be 14.1%. As for `CC(=O)Nc1ccc(NC(=O)C2(C)CC2(Cl)Cl)cc1` (stereo not shown), the figure is 18.6%; as for `Cc1occc1C(=O)Nc1nccs1`, 10%; as for `Cc1cccc(C(=O)NNC(=O)c2ccc(-c3ccccc3)cc2)c1`, 17.2%. Then `COC(=O)C1=CNC=C(C(=O)OC)C1c1cccc(OC)c1`, with 9.02%. Then `Cc1ccc(C)n1NC(=O)c1ccccc1O`, with 0.407%; and `Cc1nc(Cl)c(C(=O)NCCC(C)C)c(C)c1[N+](=O)[O-]`, with 1.57%. As to `COc1ccc(C2(C)NC(=O)N(CC(=O)c3cc(C)n(C4CC4)c3C)C2=O)cc1OC` (stereo not shown), the “hERG current change (%, negative = inhibition) at 1uM” value was 8.04%. Then `CN(CC(=O)Nc1ccccc1N1CCOCC1)S(=O)(=O)c1ccc(F)cc1`, with -11.9%; and `Cc1cc(C)n(-c2nc(Nc3ccccc3)nc(-n3nc(C)cc3C)n2)n1`, with 12.1%. With `Cc1cccc(NC(=O)CCCc2ccccc2)c1`, the “hERG current change (%, negative = inhibition) at 1uM” value came out at 4.36%. On to `CC(C)S(=O)(=O)N1CCN(c2ccnc3cc(Cl)ccc23)CC1`, for which the “hERG current change (%, negative = inhibition) at 1uM” value was -55.2%. Then `COCCn1c(SCC(=O)Nc2ccccc2OC)nc2ccccc2c1=O`, with -3.56%; and `CC(C)OC(=O)c1cccc(C(=O)OCc2ccco2)n1`, with 14%.

Consider `Cc1ccc(-c2cc(Cc3ccc(N(C)C)cc3)c(=O)[nH]n2)cc1`, for which the “hERG current change (%, negative = inhibition) at 1uM” value was 13.3%.

For `CC(C)(CN1CCN(Cc2ccccc2)CC1)NS(=O)(=O)c1ccc(Cl)cc1`, the “hERG current change (%, negative = inhibition) at 1uM” value was -35.1%.

For the molecule `COCCNC(=O)c1cnn2c(C(F)F)cc(-c3ccccc3)nc12`, the “hERG current change (%, negative = inhibition) at 1uM” value is 7.77%.

Take `COc1ccc(/C=N/N=C2/CC(C)(C)Cc3n[nH]c(=O)cc32)cc1`: the “hERG current change (%, negative = inhibition) at 1uM” value is 6.65%.

Regarding `Cc1ccc(S(=O)(=O)N(C)CC(=O)Nc2ccccc2N2CCCC2)cc1`, the “hERG current change (%, negative = inhibition) at 1uM” value is recorded as 6.45%. Turning to `COc1ccccc1OCc1ccc(C(=O)OCC2CCCO2)o1` (stereo not shown), the “hERG current change (%, negative = inhibition) at 1uM” value is recorded as 7.92%. As for `Cc1[nH]c2ccccc2c1Cc1n[nH]c(=S)n1C`, the figure is 19.9%; as for `COc1ccccc1N1CCN(CCOc2c(OC)cccc2OC)CC1.Cl`, -13.6%. Then `O=C(CCCn1c(=O)[nH]c2ccsc2c1=O)N1CCN(Cc2ccc3c(c2)OCO3)CC1`, with -1.85%; and `CC1CC(C)CN(S(=O)(=O)c2ccc3c(c2)CC(=O)N3)C1` (stereo not shown), with -5.1%. Then `CCCC(=O)Nc1ccc2oc(-c3cncc(Br)c3)nc2c1`, with 5.87%. For `Cc1ccc(C(=O)N/C(=C\c2cccs2)C(=O)NCCc2c[nH]c3ccccc23)cc1C`, the “hERG current change (%, negative = inhibition) at 1uM” value is -11.2%. Turning to `COC(=O)N1C(=O)[C@](c2ccc(OC)cc2)(C(C)C)N1C(=O)OC`, the “hERG current change (%, negative = inhibition) at 1uM” value is given as 15.1%. As to `O=C(N/N=C/c1cccc(O)c1)c1ccc(COc2ccc3c(c2)CCC3)o1`, the “hERG current change (%, negative = inhibition) at 1uM” value is on record as 8.22%. Then `COc1cc(C(=O)Nc2ccc3nc(N4CCOCC4)sc3c2)cc(OC)c1OC`, with 0.266%; and `COc1cc(NC(=O)CN2C(=O)NC(c3ccccc3)(c3ccccc3)C2=O)c(C)cc1[N+](=O)[O-]`, with 9.69%. On to `Cc1nn(Cc2ccc([N+](=O)[O-])cc2)c(=O)n1-c1cccc(Cl)c1`, for which the “hERG current change (%, negative = inhibition) at 1uM” value stood at 2.3%. Then `CCOC(=O)CNC(=O)CSc1nnc(NC(=O)c2ccc(S(=O)(=O)N3CCOCC3)cc2)s1`, with 11.3%.

(Values after PMC4336329 (PLoS ONE, 2015).)
